# From the supplement of paper PMC6206098
# ± gives the uncertainty stated by the source. The sequences are guide strands of siRNAs; only the seed at positions 2 to 7 varies.
# Assays:
# H460 = assay: cell viability relative to lipid-only control; higher = less toxic; details: concentration: 10 nM; 96 h; Homo sapiens
# Protocol: (§1)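 Arrayed screen of 4096 siRNA duplexes, each carrying one of all possible 6mer seeds at guide-strand positions 2-7 in a fixed neutral 19mer scaffold (constant flanks: U at position 1, then ACAUGUAAACCA, plus a 3' AA overhang). The passenger strand is 2'-O-methylated at positions 1-2 so only the guide strand loads into RISC. Duplexes were reverse-transfected at 10 nM with RNAiMAX in triplicate in 384-well plates; viability was read by CellTiter-Glo ATP content 96 h after transfection. Values are % viability normalised to lipid-only wells (HeyA8, H460, M565) or to siNT1 (3LL).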
# HeyA8 = assay: as above; details: concentration: 10 nM; 96 h; Homo sapiens
# Protocol: as §1
# M565 = assay: as above; details: concentration: 10 nM; 96 h; Mus musculus
# Protocol: as §1
# 3LL = assay: cell viability relative to siNT1 control; HeyA8 human ovarian and H460 human lung cancer; M565 mouse liver and 3LL mouse lung cancer; siNT1 is a non-toxic control siRNA; higher = less toxic; details: concentration: 10 nM; 96 h; Mus musculus
# 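Wherever cell viability relative to lipid-only control is given: reverse lipid transfection in 384-well plates, in triplicate, of duplexes on a non-toxic 19mer backbone with passenger strand 2′-O-methylated at positions 1 and 2, luminescence viability read-out.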
# 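Wherever cell viability relative to siNT1 control is given: Luminescence-based viability of cells reverse transfected in 384-well plates with lipid-complexed siRNAs built on a non-toxic 19mer backbone whose passenger strand carries 2′-O-methyl groups at positions 1 and 2, triplicates.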
Sequence,cell viability (H460) [%],cell viability (HeyA8) [%],cell viability (M565) [%],cell viability (3LL) [%]
UCUUGAGACAUGUAAACCAAA,57.8 ± 7.7,79.2 ± 8.1,55.5 ± 5.8,93.2 ± 15
UCGAGAGACAUGUAAACCAAA,73.1 ± 18,81.64 ± 0.72,58.6 ± 1.6,91.4 ± 21
UACACCAACAUGUAAACCAAA,63.6 ± 4.9,67.5 ± 1.1,39.2 ± 4.3,71.4 ± 13
UGGUAGUACAUGUAAACCAAA,39.9 ± 1.9,7.41 ± 1.9,33.4 ± 4.2,23.4 ± 4.1
UACAAGGACAUGUAAACCAAA,68.1 ± 4.5,62.5 ± 4,28.1 ± 4.8,54.5 ± 11
UAUAGGAACAUGUAAACCAAA,70.9 ± 4.2,91 ± 8.7,91.6 ± 8.8,109 ± 9
UAGCAAUACAUGUAAACCAAA,71 ± 7.5,75.5 ± 20,51.6 ± 4,88.3 ± 6.6
UCCAAUGACAUGUAAACCAAA,60.1 ± 4.3,66.4 ± 7.7,47.1 ± 11,97.7 ± 30
UCACGCUACAUGUAAACCAAA,27.2 ± 2.7,76.4 ± 8.7,72.9 ± 12,95.2 ± 13
UAACAUAACAUGUAAACCAAA,55.9 ± 9.7,91.4 ± 14,89.5 ± 9.9,91.9 ± 9.7
UAUGUGAACAUGUAAACCAAA,61.2 ± 1,105 ± 6.4,76.2 ± 16,117 ± 12
UUCAUUGACAUGUAAACCAAA,67.3 ± 8,97.6 ± 3.3,54.7 ± 3.8,78.3 ± 9
UACCCCGACAUGUAAACCAAA,54.4 ± 4.2,68.9 ± 4.2,41.6 ± 7.4,45 ± 9
UUAUGGGACAUGUAAACCAAA,22.9 ± 2.6,19.4 ± 2.4,49.2 ± 7.1,51.3 ± 9.9
UUUACCCACAUGUAAACCAAA,83 ± 18,70.2 ± 4.6,52.5 ± 8.7,39.6 ± 7.5
UCUUGUUACAUGUAAACCAAA,66.5 ± 7.4,78 ± 0.95,67.5 ± 15,91.9 ± 9.3
UGGUGUAACAUGUAAACCAAA,52.9 ± 5.6,31.2 ± 3,37.8 ± 5.5,89.3 ± 5.9
UAUGUCUACAUGUAAACCAAA,61 ± 4,72.1 ± 1.7,37.6 ± 9.3,55.3 ± 5.3
UGCAUCGACAUGUAAACCAAA,63 ± 7.3,62.9 ± 4,81.7 ± 6.8,91.9 ± 13
UACAAUGACAUGUAAACCAAA,83.2 ± 2.3,69.7 ± 1.5,49.6 ± 13,92.2 ± 11
UCAGCUUACAUGUAAACCAAA,68.8 ± 3.6,82.6 ± 12,78.2 ± 14,97.8 ± 18
UAACUUCACAUGUAAACCAAA,54.7 ± 4.2,34.4 ± 4.2,86.6 ± 8.9,51.1 ± 7.5

Sequence,cell viability (H460) [%],cell viability (HeyA8) [%],cell viability (M565) [%],cell viability (3LL) [%]
UAUGGCUACAUGUAAACCAAA,48.3 ± 6,76.9 ± 1.9,31.8 ± 5.2,33.6 ± 5
UGUAGUCACAUGUAAACCAAA,21.4 ± 3.5,2.82 ± 0.24,12.8 ± 0.14,32.4 ± 11
UGCACUGACAUGUAAACCAAA,57.9 ± 7.5,69.1 ± 3.6,30.7 ± 3.5,69.9 ± 17
UCACAACACAUGUAAACCAAA,23.8 ± 1.1,74.5 ± 2.9,65.4 ± 7.3,88.7 ± 17
UGUCGCGACAUGUAAACCAAA,57.6 ± 4.9,81.4 ± 7.9,56.47 ± 0.14,88.4 ± 18
UUUCUCUACAUGUAAACCAAA,29.9 ± 4.2,54.4 ± 5.1,79.7 ± 16,76 ± 7.5
UCAGUGGACAUGUAAACCAAA,34.8 ± 4.2,29.3 ± 5,31.8 ± 4.5,36.9 ± 4.5
UGCAUAUACAUGUAAACCAAA,71.5 ± 22,67 ± 5.5,40.9 ± 4,83.6 ± 11
UUUGGUCACAUGUAAACCAAA,47.6 ± 4.5,85.5 ± 6.5,84.7 ± 10,74.4 ± 7.8
UUCUAUUACAUGUAAACCAAA,59.1 ± 4.9,81 ± 6.4,48.2 ± 8.8,97.6 ± 9.6
UUGACAUACAUGUAAACCAAA,66.1 ± 8.8,93.2 ± 7.3,65.6 ± 7.8,77.4 ± 6.5
UCUGAAUACAUGUAAACCAAA,79.7 ± 7.2,86.8 ± 14,69.4 ± 18,100 ± 18
UACCAUGACAUGUAAACCAAA,52.9 ± 12,81.2 ± 11,50.3 ± 7.4,81.4 ± 5.4
UACUUCAACAUGUAAACCAAA,78.8 ± 5.9,74.8 ± 7.7,90 ± 4,100 ± 9.7
UCAAGUGACAUGUAAACCAAA,68.3 ± 9.1,79.7 ± 5.9,66.6 ± 13,84.3 ± 16
UGACAAUACAUGUAAACCAAA,73.7 ± 3.4,74.1 ± 2.1,44.7 ± 7.3,93.5 ± 21
UUGCUAAACAUGUAAACCAAA,24.3 ± 1.6,59 ± 8,107 ± 16,51 ± 2.4
UGUAGUGACAUGUAAACCAAA,68.1 ± 11,11.4 ± 3.4,78.5 ± 4.3,94.2 ± 6.3
UUGAUCUACAUGUAAACCAAA,92.2 ± 13,79.7 ± 1,79.8 ± 20,92.4 ± 1.8
UCACGAGACAUGUAAACCAAA,32.4 ± 5.5,70.9 ± 7.4,72.8 ± 6.5,94.4 ± 6.6
UACCCCAACAUGUAAACCAAA,53.9 ± 2.5,35.2 ± 6.9,59.3 ± 2.6,43.8 ± 8.4
UCGGGUUACAUGUAAACCAAA,68.7 ± 10,51.3 ± 6.9,41.4 ± 3.6,87.1 ± 15
